In all, about 420,000 compounds went through this assay and about 64,000 (15%) were called active. The inconclusive results got no clear call from the source; some entries with a clear call stand among them for comparison. Calls follow the shape of the dose curve; as a rule, active = well fitted inhibition curve with a large enough effect; inconclusive = small, poorly fitted or top-dose-only effect; inactive = flat fitted curve, though single readings scatter. Potencies of inconclusive entries are left out as doubtful fits.
Assay: qHTS for Inhibitors of human tyrosyl-DNA phosphodiesterase 1 (TDP1): qHTS in cells in absence of CPT; also: nearly all actives have a fitted effect of over 55% in size
Settings: DT40 Tdp1-/- hTDP1 cells, no CPT, ATP luminescence, 48 h; activity change, negative = growth inhibition: at 46.2 µM (top of the series)
Summary of the method: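 Chicken DT40 Tdp1-/- cells complemented with human TDP1, screened without camptothecin (DMSO vehicle only), 400 cells/well. Compounds pin-transferred, cells incubated at 37 °C for at least 48 hr. Growth read as ATP-dependent luminescence (CellTiter-Glo, 30 min at RT).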
% is scaled to controls: 0 for no effect and ±100 for the full control effect; potency is read from the fitted curve at half-maximal effect; tags tell the direction and shape of the fitted curve.

| SMILES | Potency | activity change, negative = growth inhibition |
| --- | --- | --- |
| FC(F)Sc1ccc(NC(=S)NC(c2ccccc2)c2ccccc2)cc1 | active: 10.3 µM | – |
| O=C(c1ccc(NS(=O)(=O)c2ccc(F)cc2)cc1)N1CCCCCC1 | inconclusive [inhibitor, single point] | – |
| CC(O)[C@H]1CNCCN1CCc1cccc2ccccc12 (some centres not stated) | inconclusive [inhibitor, partial curve] | – |
| Cc1ccc(N(C(=O)CNC(=O)c2ccco2)C(C(=O)NC2CCCC2)c2ccncc2)cc1 (configuration not stated) | inactive | – |
| Cc1ccccc1CNC(=O)CSc1nnc(C)c2c(C)n(-c3ccccc3)nc12 | inactive | – |
| CCSc1nc2ccc(N3C(=O)C4C5C=CC(C5)C4C3=O)cc2s1 (configuration not stated) | inconclusive [inhibitor, partial curve, poor fit] | – |
| O=C(CCC1COc2ccccc2O1)NC1CCCCC1 (configuration not stated) | inactive | – |
| COc1ccccc1Nc1nc(N)nc(CCl)n1 | active: 13 µM | – |
| CC(=O)N1CCCc2cc(S(=O)(=O)N3CCC(C(=O)Nc4ccc(C)cc4Cl)CC3)ccc21 | active: 16.4 µM | – |
| COc1ccc(C(C(=O)Nc2ccc(F)cc2)N(C(=O)Cn2nnc3ccccc32)C2CC2)cc1 (configuration not stated) | inconclusive [inhibitor, partial curve] | – |
| COc1ccccc1CNC(=O)c1c(N)n(CCCN2CCOCC2)c2nc3ccccc3nc12 | inconclusive [inhibitor, single point] | – |
| CCCCOc1ccc(C2C(C(=O)Nc3ccccc3OC)=C(C)Nc3nnnn32)cc1OC (configuration not stated) | inconclusive [inhibitor, single point] | – |
| COc1ccc(NC(=O)N2CCC3(CC2)CCN(C(=O)c2csnn2)CC3)cc1 | inactive | – |
| Fc1ccccc1OCCCCCCN1CCCC1 | inconclusive [inhibitor, single point] | – |
| Cc1cccc(-n2c(Cc3cc(=O)[nH]c(=O)[nH]3)nnc2SCC(=O)NCc2ccco2)c1 | inactive | – |
| O=C(c1ccc2c(=O)n3c(nc2c1)CCCCC3)N1CCN(c2ccc([N+](=O)[O-])cc2)CC1 | inconclusive [inhibitor, partial curve] | – |
| Cc1ccn2c(Nc3ccc4c(c3)OCCO4)c(-c3ccccc3O)nc2c1 | inconclusive [inhibitor, single point] | – |
| O=C(COc1cc2oc(=O)c3c(c2cc1Cl)CCC3)NCc1ccccn1 | inactive | – |
| OC1(c2ccc(Cl)cc2)CCN(Cc2cn[nH]c2-c2ccc(F)cc2)CC1 | active: 4.11 µM | – |
| COc1ccc(CN(C)C(C)C(=O)Nc2ccc(S(=O)(=O)N3CCCCC3)cc2)c(OC)c1 (configuration not stated) | inconclusive [inhibitor, single point] | – |
| CC(=O)Nc1nc(C)nc(-c2ccccc2OC(C)=O)n1 | inactive | – |
| CCCCc1nnc(NC(=O)c2cccc(S(=O)(=O)N3CCN(C)CC3)c2)s1 | inactive | – |
| O=C(Nc1nc2ccsc2c(=O)s1)c1ccc(Cl)cc1 | inactive | – |

| SMILES | Potency | activity change, negative = growth inhibition |
| --- | --- | --- |
| O=C(O)CCCN1C(=O)c2ccccc2Sc2ncccc21 | inactive | – |
| COc1cccc(-c2nc(CS(=O)(=O)CC(=O)N3CCOCC3)c(C)o2)c1 | inactive | – |
| O=C1N=C2SCCN2/C1=C\c1ccc(Cl)cc1 | inconclusive [inhibitor, single point] | – |
| COc1ccc(-n2cnc3c(sc4nccc(N(C)C)c43)c2=O)cc1 | inconclusive [inhibitor, partial curve] | – |
| COc1ccc(-c2noc3c2-c2nc(-c4ccccc4F)sc2CC3)cc1 | inconclusive [inhibitor, partial curve, poor fit] | – |
| Cc1ccc(C)c(-n2c3nc(=O)n(C)c(=O)c-3cc3ccccc32)c1 | inconclusive [inhibitor, single point] | – |
| COc1ccc(C2CC(=O)c3c(O)cc(O)cc3O2)c(CC=C(C)C)c1OC (configuration not stated) | inconclusive [inhibitor, partial curve, poor fit] | – |
| CCn1c(C)nc2cc(S(=O)(=O)N3CCCCC3)ccc21 | inconclusive [inhibitor, partial curve] | – |
| CC(C)(C)NC(=O)C(c1ccccc1)n1c(=O)c(-c2cc3ccccc3[nH]2)nc2ccccc21 (configuration not stated) | inconclusive [inhibitor, single point] | – |
| COc1ccccc1N1CCN(C(CNC(=O)C(=O)NCc2cccnc2)c2cccnc2)CC1 (configuration not stated) | inconclusive [inhibitor, single point] | – |
| N#CC1=C(S)N(c2ccc(F)cc2)C(c2cccs2)NC1=O (configuration not stated) | inconclusive [inhibitor, partial curve, poor fit] | – |
| O=C(N/N=C/C=C/c1ccco1)c1ccccc1Cl | active: 16.4 µM | – |
| Cc1cc(NC(=O)Nc2nnc(N3CCCCCC3)s2)ccc1Br | inconclusive [inhibitor, single point] | – |
| Cc1ccc(NC2CC(=O)N(c3cccc([N+](=O)[O-])c3)C2=O)cc1 (configuration not stated) | inactive | – |
| Cc1ccn2c(=O)nc(SCC(=O)Nc3ccc4c(c3)OCCO4)nc2c1 | inconclusive [inhibitor, single point] | – |
| CC12CCC3C(=CCc4cc(O)ccc43)C1CC(=NO)C2O (configuration not stated) | inconclusive [inhibitor, partial curve] | – |
| CCOc1ccccc1N(CC(=O)NCc1ccco1)C(=O)CCC(=O)Nc1nccs1 | inactive | – |
| Cc1ccc(S(=O)(=O)N2CCN(CCNC(=O)C(=O)Nc3ccc(F)cc3)CC2)cc1 | inconclusive [inhibitor, partial curve] | – |
| Cc1nc(C(=O)Nc2ccc(Cl)cc2)sc1C1(C)CC(c2cccc([N+](=O)[O-])c2)=NO1 (configuration not stated) | inconclusive [inhibitor, partial curve] | – |
| COc1ccc(CNC(=O)C2CCN(S(=O)(=O)c3ccc4c(c3)NC(=O)C(C)S4)CC2)cc1 (configuration not stated) | inconclusive [inhibitor, partial curve] | – |
| COc1cc2c(cc1OC)[C@@H]1CC(=O)[C@@H](CC(C)C)CN1CC2 | inconclusive [inhibitor, single point] | – |
| Cc1ccc(NC(=O)c2oc3c(c2C)-c2[nH]ncc2CC3)c(Cl)c1 | inconclusive [inhibitor, single point] | – |
| CCSC1=N/C(=C\c2cccnc2)C(=O)N1c1ccccc1 | inconclusive [inhibitor, partial curve, poor fit] | – |

| SMILES | Potency | activity change, negative = growth inhibition |
| --- | --- | --- |
| O=C(OCc1ccccc1)N1CCC2CC1c1cc(N3CCCCC3)ccc12 (configuration not stated) | inconclusive [inhibitor, single point] | – |
| COc1cccc(C(=O)Nc2cccc(-c3ccc(N4CCOCC4)nn3)c2)c1 | inconclusive [inhibitor, single point] | – |
| Cc1cnc(C(=O)N2CCc3c([nH]c4ccccc34)C2c2ccc(F)cc2)cn1 (configuration not stated) | inconclusive [inhibitor, single point] | – |
| CCOC(=O)N1CCC(N2C(=O)c3ccc(C(=O)Nc4cccc(OC)c4)cc3C2=O)CC1 | inconclusive [inhibitor, single point] | – |
| Cc1c(O)c(=O)c2ccccc2n1C | inconclusive [inhibitor, single point] | – |
| O=C1C/C(=C/NCc2ccccc2)C(=O)N1 | inactive | – |
| CC(C)C[C@@H](CN1CCC[C@@H]1CN1C(=O)C(=O)NC[C@@H]1Cc1ccccc1)N1C[C@H](Cc2ccccc2)N(CC2CCCCC2)C(=O)C1=O | active: 16.4 µM | – |
| CSc1ccccc1C(=O)NCCOc1ccccc1C | inconclusive [inhibitor, single point] | – |
| Cc1ccc(-c2nn(-c3ccccc3)c3c2cnc2ccccc23)cc1C | inactive | – |
| CCOc1ccc(NCc2cccn2-c2nnc(N3CCC(C(=O)NCCCN4CC(C)CC(C)C4)CC3)s2)cc1 (configuration not stated) | inconclusive [inhibitor, single point] | – |
| COc1ccc(OC)c(-c2noc(N3CCN(c4ccc(Cl)cc4)CC3)n2)c1 | active: 14.6 µM | – |
| O=C(N/C(=C/c1ccc(Cl)cc1)C(=O)N1CCOCC1)c1ccccc1 | inconclusive [inhibitor, single point] | – |
| CCS(=O)(=O)N1CCC(C(=O)Nc2cc(C)ccc2O)CC1 | – | inconclusive: -0.962% [inhibitor] |
| COC(=O)[C@]1(C)N[C@H](c2ccc(-c3ccc(F)cc3)cc2)[C@@H]2C(=O)N(C)C(=O)[C@@H]21 | inconclusive [inhibitor, single point] | – |
| S=c1[nH]nc(-c2cccs2)n1/N=C/c1cn(-c2ccccc2)nc1-c1ccc(Cl)cc1 | inconclusive [inhibitor, single point] | – |
| CC1CCCC(NC(=O)CCS(=O)(=O)c2ccc3c(c2)NC(=O)CS3)C1C (configuration not stated) | inconclusive [inhibitor, single point] | – |
| COc1ccccc1Nc1nc(N)nc(CN(C)C2CCCCC2)n1 | inconclusive [inhibitor, single point] | – |
| Cc1ccc(C(O)c2ncc(-c3cccc4ccccc34)[nH]2)cc1F (configuration not stated) | inconclusive [inhibitor, single point] | – |
| O=S(=O)(c1ccc(Oc2ccc(S(=O)(=O)N3CCOCC3)cc2)cc1)N1CCOCC1 | inconclusive [inhibitor, single point] | – |
| C=CCN(C(=O)c1csnn1)C(C(=O)NC1CCCCC1)c1ccc(Cl)cc1 (configuration not stated) | inconclusive [inhibitor, single point] | – |
| CN(CC(=O)Nc1c(Cl)cccc1Cl)C(=O)c1ccccc1Cc1ccccc1 | inactive | – |

Source: PubChem BioAssay AID686978 (National Center for Advancing Translational Sciences (NCATS), 2013)
